Results taken from PubChem BioAssay AID360 (National Center for Advancing Translational Sciences (NCATS), 2006).
Among all 48,000 compounds or so, about 550 (1.1%) were called active. Inconclusive results (about 4%) are left out. No stated cut-off is given here; in the data, active means potency below about 15 µM; inconclusive means mostly about 16 µM to 33 µM; inactive means weaker than that. The list shows a part of the results.

Biological target: Lysosomal acid glucosylceramidase (Homo sapiens) (UniProt P04062)
Sequence of UniProt P04062 (P04062 whole entry, looked up): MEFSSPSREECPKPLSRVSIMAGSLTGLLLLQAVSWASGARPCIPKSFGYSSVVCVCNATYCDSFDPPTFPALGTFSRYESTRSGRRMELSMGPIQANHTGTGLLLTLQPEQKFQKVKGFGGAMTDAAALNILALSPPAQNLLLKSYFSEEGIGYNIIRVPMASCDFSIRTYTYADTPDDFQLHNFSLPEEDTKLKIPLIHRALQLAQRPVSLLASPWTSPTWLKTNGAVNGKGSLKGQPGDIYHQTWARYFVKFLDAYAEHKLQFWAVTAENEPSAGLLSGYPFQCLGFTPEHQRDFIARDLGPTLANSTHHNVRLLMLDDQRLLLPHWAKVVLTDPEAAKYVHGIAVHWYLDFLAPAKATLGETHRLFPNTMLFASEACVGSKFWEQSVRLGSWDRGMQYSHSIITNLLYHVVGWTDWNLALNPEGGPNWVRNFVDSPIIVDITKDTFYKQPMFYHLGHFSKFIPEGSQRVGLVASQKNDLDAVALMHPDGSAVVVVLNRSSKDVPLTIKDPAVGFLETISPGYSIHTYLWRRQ
Assay: Glucocerebrosidase;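 further: the screen sought inhibitors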
Settings: purified enzyme, resorufin glucoside fluorescence (screen aimed at inhibitors), 20 min
Summary of the method: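 Normal human glucocerebrosidase (0.2 nM final) was assayed with resorufin β-D-glucopyranoside (30 uM final) in 50mM citric acid/KH2PO4, 10mM sodium taurocholate, 0.01% tween-20, pH 5.9. Compounds were titrated; fluorescence (Ex 548, Em 600) read after 20 min at RT.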
Potency means the concentration at half of the fitted maximal effect.

Potency, inactive:
COc1ccc(CCNC(=O)CSc2nnc(-c3cccc(F)c3)o2)cc1OC > 76.9 µM
CCn1c(CN2CCN(C(=O)c3ccco3)CC2)nc2c1c(=O)n(C)c(=O)n2C > 76.9 µM
CCCn1nnnc1SCC(=O)NCc1cccs1 > 76.9 µM
Cc1cc(C)c(S(=O)(=O)N(C)CC(=O)N2CCCCC2)c(C)c1 > 76.9 µM
Cn1c(=O)n(C)c2cc(C(=O)Nc3ccc4c(c3)OCO4)ccc21 > 76.9 µM
CCS(=O)(=O)NC(C)C(c1cccs1)N1CCN(C)CC1 (configuration not stated) > 76.9 µM
C=CCn1c(=O)c2ccccc2n2c(SCc3nnc(-c4ccccc4Br)o3)nnc12 > 76.9 µM
Cc1ccc(Nc2nc(=O)c3cccnc3s2)cc1 > 76.9 µM
CCOc1ccc(S(=O)(=O)N(C)c2ccc(OCC(=O)OCc3c(C)noc3C)cc2)cc1 > 76.9 µM
CCCS(=O)(=O)N1CCC(C(=O)NCCN(CC)c2ccccc2)CC1 > 76.9 µM
Cc1c(C(=O)Nc2ccc(C(=O)O)cc2)cnn1C > 76.9 µM
CC(=O)N1CCc2cc(S(=O)(=O)NCCC(=O)NC3CCCc4ccccc43)ccc21 (configuration not stated) > 76.9 µM
COc1cc(NS(=O)(=O)c2ccc(NC(C)=O)cc2)cc(OC)c1 > 76.9 µM
O=c1nc(-c2ccccc2)c2ccccc2[nH]1 > 76.9 µM
c1coc(CNc2nc3sc4c(c3c3ncnn23)CCCC4)c1 > 76.9 µM
CCN(CCNC(=O)C1CCCN(S(=O)(=O)CC)C1)c1ccccc1 (configuration not stated) > 76.9 µM
Cc1ccc(-c2csc3ncn(-n4c(C)ccc4C)c(=O)c23)o1 > 76.9 µM
Cc1ccc(C2(C)NC(=O)N(CC(=O)Nc3ccc4c(c3)OCO4)C2=O)cc1 (configuration not stated) > 76.9 µM
Cc1nc(SCC(C)C)[nH]c(=O)c1Cc1ccccc1 > 76.9 µM
CC(c1ccco1)N(C(=O)c1cccs1)c1ccccn1 (configuration not stated) > 76.9 µM
O=C(NC1CCCCC1)NC1CCN(CC(=O)N2CCOCC2)CC1 > 76.9 µM
CC(C)Oc1ccc(C2NC(=O)NC2=O)cc1 (configuration not stated) > 76.9 µM
COc1cccc(NC(=O)COC(=O)c2cccnc2)c1 > 76.9 µM
Cc1ccc2nsnc2c1N(S(C)(=O)=O)S(C)(=O)=O > 76.9 µM
Cc1ccc(S(=O)(=O)Cc2cn3cccnc3n2)cc1 > 76.9 µM
CCOC(=O)c1c(C)oc(/N=C/c2ccccc2O)c1C#N > 76.9 µM
Cc1ccccc1Cn1c(=N)n(CC(O)c2ccco2)c2ccccc21 (configuration not stated) > 76.9 µM
O=C(CC1NCCNC1=O)Nc1ccc(Oc2ccccc2)cc1 (configuration not stated)
CC(NS(=O)(=O)c1ccccc1)C(=O)Nc1ccc(S(N)(=O)=O)cc1 (configuration not stated) > 76.9 µM
O=C(Nc1ccc(O)cc1C(=O)O)c1cccc(Br)c1 > 76.9 µM
CCOC(=O)C1=C(C)Nc2ncnn2C1c1ccc(N(C)C)cc1 (configuration not stated) > 76.9 µM
Cc1cc(N2CCC(C(=O)NCC3CC3)CC2)nc(-c2ccccc2)n1
CCCCOc1cc(=O)[nH]c(=O)[nH]1 > 76.9 µM
COc1ccc(NC(=O)CSc2nnc(CNC(=O)c3ccco3)o2)c(OC)c1 > 76.9 µM
CCn1c(-c2ccco2)nc2ccccc21 > 76.9 µM
COc1cccc(CNC(=O)C(CCSC)NS(=O)(=O)c2ccc3c(c2)oc(=O)n3C)c1 (configuration not stated) > 76.9 µM
CN1C(=O)N(C)C(NC(=O)Nc2ccccc2)C1NC(=O)Nc1ccccc1 (configuration not stated) > 76.9 µM
c1ccc(CCc2nn3c(Cn4cnc5ccccc54)nnc3s2)cc1 > 76.9 µM
CC(C)C(c1nnnn1C1CCCC1)N(C)C1CCCCC1 (configuration not stated) > 76.9 µM
O=C(CSc1nc2c(sc3ccccc32)c(=O)n1Cc1ccco1)NCC1CCCO1 (configuration not stated) > 76.9 µM
C=CCNC(=O)c1ccc(OC)cc1OC > 76.9 µM
CCOC(=O)C1CCN(S(=O)(=O)c2cc(Cl)c(C)cc2OC)CC1 > 76.9 µM
O=C(NCc1ccncc1)c1ccc(Cl)c(S(=O)(=O)N2CCOCC2)c1 > 76.9 µM
COc1ccc(CC(=O)Nc2cccc(C(=O)O)c2C)cc1 > 76.9 µM
O=C(CSc1nnc(-c2ccc(Br)o2)n1Cc1ccccc1)c1ccccc1F > 76.9 µM
O=C(CSc1ccc2nnc(-c3ccccc3)n2n1)NCC1CCCO1 (configuration not stated) > 76.9 µM
COc1ccc(S(=O)(=O)Nc2ccccc2C(=O)NCc2ccco2)cc1Br
